PubChem BioAssay AID1745853 (National Center for Advancing Translational Sciences (NCATS), 2022)
The list shows a part of the results. These are further read-outs of the screen, such as a control signal, another cell line or another target. No call is given for them.

Assays:
Experiment in all cases: Primary Screen for Target Class Profiling of Small Molecule Inhibitors of Methyltransferases
[1] = target: Glycine N-methyltransferase (Homo sapiens) (UniProt Q14749); conditions: purified enzyme, MTase-Glo SAH luminescence; measured here: GNMT inhibition; at 40 µM; stronger effect = lower value
In short: (§1)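 Each enzyme was reacted with SAM and its substrate, with compounds tested once at 40 uM; SAH formed was read by MTase-Glo luminescence.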

[2] = target: Guanidinoacetate N-methyltransferase (Homo sapiens) (UniProt Q14353); conditions: purified enzyme, MTase-Glo SAH luminescence; measured here: GAMT inhibition; at 40 µM; stronger effect = lower value
In short: as §1

[3] = target: Histamine N-methyltransferase (Homo sapiens) (UniProt P50135); conditions: purified enzyme, MTase-Glo SAH luminescence; measured here: HNMT inhibition; at 40 µM; stronger effect = lower value
In short: as §1

[4] = target: Nicotinamide N-methyltransferase (Homo sapiens) (UniProt P40261); conditions: purified enzyme, MTase-Glo SAH luminescence; measured here: NNMT inhibition; at 40 µM; stronger effect = lower value
In short: as §1

[5] = target: Phenylethanolamine N-methyltransferase (Homo sapiens) (UniProt P11086); conditions: purified enzyme, MTase-Glo SAH luminescence; measured here: PNMT inhibition; at 40 µM; stronger effect = lower value
In short: as §1
% is scaled to controls: 0 for no effect and ±100 for the full control effect.

SMILES	activity change, negative = inhibition [1]	activity change, negative = inhibition [2]	activity change, negative = inhibition [3]	activity change, negative = inhibition [4]	activity change, negative = inhibition [5]
COc1ccccc1NC(=O)CSc1nnc2n(CCc3ccccc3)c(=O)c3ccccc3n12	1.65%	0.578%	8.41%	0.002%	1.85%
O=C(Nc1cccc(C(F)(F)F)c1)N[C@H]1CO[C@H]2[C@@H]1OC[C@@H]2n1cc(-c2ccccc2)nn1	-5.08%	6.57%	-0.199%	-1.36%	-6.34%
O=C1CC(Cc2ccccc2)CN1CC(=O)N1CCOC2(CCCC2)C1 (stereo not given)	-4.5%	-2.73%	-3.36%	-6.65%	-5.37%
COc1ccc(NC(=O)N[C@H]2[C@H](O)[C@@H](N(C)CCc3ccccn3)[C@@H]3OC[C@H]2O3)cc1	-8.87%	-7.45%	-4.81%	-14.8%	-6.77%
COc1ccc(CNC(=O)c2cc3n(n2)CC(C)(C(=O)NCc2ccccc2)N(C)C3=O)c(OC)c1 (stereo not given)	8.41%	0.224%	10.7%	8.79%	6.26%
CNC(=O)N1CCC(C2CCN(C(=O)c3ccc4ccccc4n3)C2)CC1 (stereo not given)	-5.11%	-4.53%	0.171%	-11.8%	5.11%
O=S(=O)(Nc1ccccc1Cl)c1ccc2[nH]c3c(c2c1)CCCC3	-6.08%	0.099%	-1.35%	-9.85%	-0.536%
CCn1c2ccccc2c2cc(Nc3ccnc(NCCCN4CCOCC4)n3)ccc21	-7.4%	9.9%	-83.5%	-71.2%	-23.2%
Cc1ccccc1NC(=O)Cn1c(=O)oc2cc(S(=O)(=O)N3CC(C)CC(C)C3)ccc21 (stereo not given)	0.397%	3.48%	1.58%	3.01%	-1.86%
CC1(C(=O)NC2CCCCCCC2)Cn2c(cc3occc32)C(=O)N1C1CCCCC1 (stereo not given)	4.46%	0%	5.45%	-0.21%	0.081%
CC(=O)NC(C)c1cnc(-c2cnc(Oc3ccc(OC(C)C)cc3)s2)s1 (stereo not given)	0.479%	8.67%	6.03%	-12.3%	2.1%
CC1CCC(NC(=O)C2(C)Cn3c(ccc3-c3ccccc3)C(=O)N2Cc2cccc(F)c2)CC1 (stereo not given)	4.66%	0%	1.69%	2.67%	0.062%
O=C(NCC1(N2CCN(c3ccccc3)CC2)CCOCC1)c1cccnc1Sc1ccccc1	5.42%	2.29%	8.95%	-15.4%	-0.074%
O=C(CCC1CCN(S(=O)(=O)c2ccccc2F)CC1)NCCCN1CCCC1=O	15.8%	1.19%	12.8%	5.59%	9.44%
COC(=O)N1CCCCC1C(=O)N1CCC2(CC1)c1nc[nH]c1CCN2C (stereo not given)	-0.229%	1.71%	1.1%	3.62%	5.38%
CCNc1ncnc2sc3c(c12)CCN(C(=O)CCOC)C3	-21.8%	-10.1%	-6.95%	-20.5%	-25.1%
O=C(c1ccc2c(=O)nc3c(-c4ccccc4F)n[nH]n3c2c1)N1CCN(c2ccc(F)cc2)CC1	-14.1%	3.49%	-0.576%	-4.14%	0.667%
CCOc1ccc(CCNC(=O)CCc2nnc3n(Cc4ccc(C)cc4)c(=O)c4ccccc4n23)cc1	-0.325%	0%	-3%	-0.844%	-12.2%
O=C(/C=C/n1cnc(-c2cc(C(F)(F)F)cc(C(F)(F)F)c2)n1)NNc1cnccn1	-0.102%	6.59%	11.2%	-6.11%	5.72%
